# Experimental data as given in PubChem BioAssay AID1347073 (National Center for Advancing Translational Sciences (NCATS), 2019).
# About 200 (0.44%) of roughly 45,000 compounds were called active. Inconclusive results (about 7%) are left out. The call rests on the fitted dose curve; in most records, active means well fitted activation curve with a large enough effect; inconclusive means small, poorly fitted or top-dose-only effect; inactive means no such curve, though single readings can be large or run the other way. This is one part of the list.
# Assay: qHTS of TDP-43 Inhibitors: NCGC Sytravon Library Screen; further: nearly all actives have a fitted effect of over 55% in size; on growth rescue (activation): 0% is about no effect
# Details: yeast TDP-43 toxicity rescue, BacTiter-Glo growth, 24 h; series mostly up to 46.1 µM; growth rescue (activation): at the top concentration
# Procedure, shortened: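 TDP-43-expressing yeast, pregrown in raffinose, seeded at OD600 0.02 in galactose medium with compound for 24 hr at 30 deg C. Growth read by BacTiter-Glo luminescence, so rescue of toxicity appears as activation.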
# Potency means the concentration at half of the fitted maximal effect.
SMILES,growth rescue (activation),Potency
CCNS(=O)(=O)c1cc(OC)c(Cl)cc1OC,inactive: -12.5%,–
COc1ccc(C(NC(=O)CN2CCCCCC2)c2ccc(OC)cc2)cc1,inactive: 4.01%,–
Cc1ncc([N+](=O)[O-])n1CC(=O)Nc1ccc(Cl)cc1,inactive: -7.82%,–
CSc1ccc(CN(C)CC(=O)NCCc2ccccc2)cc1,inactive: 3.49%,–
COc1ccc(CCNC(=O)Nc2ccc3c(c2)c(=O)n(C)n3Cc2ccc(Cl)cc2)cc1OC,inactive: -9.9%,–
COC(=O)C1=C(C)N(Cc2ccc(C)cc2)C(=O)/C1=C\c1cc(OC)c(OC)c(OC)c1,inactive: 10.7%,–
COc1ccc(CCNC(=O)C2=C(C)C(=O)OC23CCCCC3)c(OC)c1,inactive: 6.93%,–
Cc1cc(NS(=O)(=O)c2ccc(NC(=O)c3cccnc3)cc2)nc(C)n1,inactive: -6%,–
O=C(O)Cn1nnc(COc2ccccc2)n1,inactive: 24.8%,–
Cc1coc2c(C)c3oc(=O)c(CCC(=O)NCCC(=O)O)c(C)c3cc12,inactive: 3.7%,–
O=C(NCc1ccco1)c1ccc2sc([C@@H]3O[C@H](CO)[C@@H](O)[C@H]3O)nc2c1,inactive: -8.85%,–
CCOc1ccc(N=C2NC(=O)SC2CC(=O)OC)cc1 (configuration not stated),inactive: -1%,–
COc1ccc(S(=O)(=O)N(C)c2ccc(C(=O)N3CCCCC3)cc2)cc1,inactive: 12%,–
CCN(CC(=O)Nc1ccc(NC(C)=O)cc1)C(=O)COc1ccc(C(=O)c2ccccc2)cc1,inactive: 10.9%,–
Cn1cc(Br)c(C(=O)NNC(=O)Cc2ccc(Cl)cc2)n1,inactive: 7.02%,–
COCCN1Cc2cccc(C(=O)NCCc3ccccc3)c2C1=O,inactive: 10.8%,–
CCOC(=O)/C=C1\SCC(=O)N1CC(=O)NC(C)C,inactive: 1.71%,–
CC(=O)NNC(=S)Nc1cc(S(=O)(=O)N(C)C)ccc1C,inactive: 8.46%,–
CCN(CC)P(=O)(Nc1ccc(Br)cc1)c1c(C)nn(CCC#N)c1NC(=O)c1ccc(Cl)cc1 (configuration not stated),inactive: -2.82%,–
CNc1c(NS(=O)(=O)c2ccc(F)cc2)c(=O)oc2ccccc12,inactive: -7.48%,–
CC(Oc1ccc(-c2ccccc2)c(F)c1)c1ccn(S(=O)(=O)c2cccc3ccccc23)n1 (configuration not stated),inactive: 26.2%,–
Cc1ccc(S(=O)(=O)N2CCCCC2)cc1C(=O)N1CCCC1,inactive: 6.86%,–

SMILES,growth rescue (activation),Potency
NNC(=O)c1nnn(-c2nonc2N)c1CN1CCc2ccccc2C1,inactive: -20.5%,–
Cc1ccccc1C(=O)N1CCC(C(=O)NC2CCCC2)CC1,inactive: 14.4%,–
Cc1ccc(C(c2nnnn2C2CCCC2)N2c3ccccc3CC2C)cc1 (configuration not stated),inactive: -8.01%,–
Cc1nc2oc(C(=O)c3ccccc3)c(N)c2c2c1COC(C)(C)C2,inactive: 42.3%,–
Cc1ccc(-n2nc(C)c3c(C)c(CCC(=O)NCc4ccccc4Cl)c(C)nc32)cc1,inactive: 7.15%,–
COCCn1c(Cc2ccccc2)nnc1SCc1ccc([N+](=O)[O-])cc1,inactive: -7.82%,–
NS(=O)(=O)c1ccc(CNC(=S)NC(=O)c2ccco2)cc1,inactive: 4.69%,–
COc1ccc(CCNC(=O)CN(c2ccc(OC)c(OC)c2)S(=O)(=O)c2ccc(C)cc2)cc1,inactive: 19.7%,–
CCCNC(=S)N1CCN(C(c2ccccc2)c2ccccc2)CC1,inactive: -21.1%,–
Cc1nccn1CC(=O)N/N=C/c1ccccc1O,inactive: 4.45%,–
COCCCn1c(=O)/c(=C\c2ccccc2OC(F)F)s/c1=C(/C#N)C(N)=O,inactive: -6.76%,–
CC1=C(C(=O)OCc2ccccc2)C(c2cccnc2)c2c(n(C)c(=O)n(C)c2=O)N1 (configuration not stated),inactive: -9.68%,–
O=C1CN(C(=O)/C=C/c2cc(Br)ccc2F)CCN1,inactive: -6.22%,–
O=C(Nc1cc(Sc2ccccn2)cc([N+](=O)[O-])c1)c1cccc(Cl)c1,inactive: -4.74%,–
Cc1cc(C)n2c(SCC(=O)NC3CCCCC3)nnc2n1,inactive: -11.5%,–
CCCCOc1ccc(S(=O)(=O)NC(=O)C2(C)CCN2C(=O)Cc2ccccc2Cl)cc1 (configuration not stated),inactive: 12.6%,–
COc1ccc(C(=O)N2CCC2(C)C(=O)NC(C)C)cc1OC (configuration not stated),inactive: -1.41%,–
COC(=O)CN1C(c2ccc(Cl)cc2)=Nc2ccc(Cl)cc2C1c1ccccc1 (configuration not stated),inactive: -9.57%,–
CCSc1nc2sc3c(c2c(=O)n1-c1ccc(C)cc1)CCCC3,inactive: -2.05%,–
CC(C)(C)CC(=O)Nc1nnc(SCC(=O)NC2CCCCC2)s1,inactive: 0.964%,–
Cc1ccc(-c2nnc(N3CCN(c4ccccn4)CC3)c3ccccc23)cc1,inactive: -7.83%,–
O=C1N=c2ccccc2=C1c1sc(=S)n(NC(=O)c2ccccc2)c1O,inactive: -4.09%,–

SMILES,growth rescue (activation),Potency
CN(C)C(=O)COc1ccc(S(=O)(=O)c2ccc(OCC(=O)N(C)C)cc2)cc1,inactive: 2.29%,–
CCNS(=O)(=O)c1ccc(CCC(=O)Nc2ccccc2)cc1,inactive: 6.21%,–
CS(=O)(=O)N1CCN(c2ccccc2NC(=O)c2ccc3c(c2)OCCO3)CC1,inactive: 6.35%,–
O=C(Nc1cc(S(=O)(=O)N2CCOCC2)ccc1N1CCCCC1)c1ccccc1Br,inactive: 13.4%,–
Nc1cc(C(=O)OCC(=O)NCCNC(=O)COC(=O)c2ccc(Cl)c(N)c2)ccc1Cl,inactive: 4.69%,–
COc1cc(/C=C(\C#N)C(=O)Nc2cccc3ncccc23)cc(OC)c1OC,inactive: 24.4%,–
CC1(C)CC(=O)C=C(Nc2cccc(O)c2)C1,inactive: 14.6%,–
Cc1nnc(SCc2cc(=O)[nH]c(=S)[nH]2)s1,inactive: -7.31%,–
Cc1ccc(Sc2ncnc(N)c2[N+](=O)[O-])cc1,inactive: -1.61%,–
COc1ccc(N2CCC(CNC(=S)Nc3cccc(C)c3)C2)cc1 (configuration not stated),–,active: 14.1 µM
O=C(C1CCC(CNS(=O)(=O)c2ccccc2)CC1)N1CCCCC1 (configuration not stated),inactive: -5.32%,–
CC(C)NC(=O)/C=C/C(=O)O,inactive: -2.19%,–
CCCc1nnc(NC(=O)CCS(=O)(=O)c2ccccc2)s1,inactive: 2.1%,–
O=C(NCC(=O)N(c1ccc(F)cc1)C(C(=O)NC1CCCC1)c1cccnc1)c1cccs1 (configuration not stated),inactive: 11.7%,–
Cc1ccc(C)c(OCC(=O)Nc2ccccc2C(=O)N2CCOCC2)c1,inactive: 9.94%,–
CCOC(=O)c1c(-c2ccc(C)o2)csc1NC(=S)NC(=O)c1ccc(F)cc1,inactive: -11.4%,–
CN1/C(=C\C(=S)NC(=O)c2ccccc2Cl)C(C)(C)c2ccccc21,inactive: -5.14%,–
Cc1ccc2cc3c(N)[nH]nc3nc2c1,inactive: 18.2%,–
CCOC(=O)Cc1cc(=O)[nH]c(/N=C(\N)Nc2ccc(OC)cc2)n1,inactive: -6.67%,–
O=C(COC(=O)/C(=C/c1cccs1)c1cccs1)NCc1ccccc1Cl,inactive: 10.8%,–
Cc1nn(CCCC(=O)Nc2cccnc2Cl)c(C)c1[N+](=O)[O-],inactive: 5.57%,–
CCOc1ccc(NC(=O)COC(=O)c2n[nH]c3ccccc23)cc1,inactive: 9.86%,–

SMILES,growth rescue (activation),Potency
CCOCCc1nnc(NC(=O)C2CCN(C(=O)c3ccco3)CC2)s1,inactive: 12.1%,–
Cc1ccc(N2C(=O)c3ccccc3C2=O)cc1,inactive: 12.5%,–
Cc1ccc(C)c(N(CC(=O)NN=C2CCN(C)CC2)S(=O)(=O)c2ccccc2)c1,inactive: -15%,–
Cc1nc(N/C(N)=N/S(=O)(=O)c2ccccc2)nc2ccccc12,inactive: 12.7%,–
O=S(=O)(Nc1ccc(Cl)cc1)c1cccc2nsnc12,inactive: 9.59%,–
O=C(Nc1cc(S(=O)(=O)N2CCCCC2)ccc1Cl)c1ccccc1NS(=O)(=O)c1ccc(F)cc1,inactive: 20.6%,–
O=C(CNc1ccc2ccccc2c1)N/N=C/c1ccc(C(=O)O)cc1,inactive: 5.31%,–
Cn1c(=O)c2c(nc(NCc3ccccc3)n2CC(=O)NCc2ccccc2)n(C)c1=O,inactive: 18.6%,–
CCOc1ccccc1NC(=O)C(OC(=O)C1CC1)c1ccccc1 (configuration not stated),inactive: 21.1%,–
NS(=O)(=O)c1ccc(NC(=O)CCC(=O)c2ccc(Cl)s2)cc1,inactive: -5.22%,–
COc1cccc(/C=C/C(=O)OCC(=O)c2c[nH]c3ccccc23)c1OC,inactive: -10.9%,–
COc1ccccc1C(c1nnnn1CC1CCCO1)N1CCN(c2ccccc2)CC1 (configuration not stated),inactive: 6.6%,–
CCc1c(C)nc2nncn2c1NCc1ccc(OC)cc1,inactive: 5.2%,–
COc1ccc(NC(=S)N2CCCC2c2ccc(OC)c(OC)c2)cc1 (configuration not stated),inactive: 11.5%,–
COc1cc(/C=N/NC(=O)c2c(C)nc3ccc(Cl)cn23)cc(OC)c1OC,inactive: 9.57%,–
CC1CC(C)CN(CCCNC(=O)c2ccc3c(c2)NC(=O)C(N2CCCCC2)S3)C1 (configuration not stated),inactive: 5.23%,–
COc1cc(CCC(=O)Nc2sccc2C#N)cc(OC)c1OC,inactive: 5.83%,–
CCOc1ccc(NC(=O)Cn2c(=O)n(CCCC(=O)NC3CCN(Cc4ccccc4)CC3)c(=O)c3ccccc32)cc1,inactive: 14.4%,–
OC1CCCN(CC(O)COC(c2ccc(F)cc2)c2ccc(F)cc2)C1 (configuration not stated),inactive: 1.47%,–
Cc1c(C(=O)NCC(c2ccco2)N2CCCC2)sc2ccccc12 (configuration not stated),inactive: -3.34%,–
CCN1CCN(C(=O)C2CC(=O)N(c3ccc(Cl)cc3)C2)CC1 (configuration not stated),inactive: -4.58%,–
Cc1ccc(-c2nnn(CCOc3cccc(Br)c3)n2)cc1,inactive: 1.15%,–

SMILES,growth rescue (activation),Potency
CC1(C(=O)NS(=O)(=O)c2ccccc2)CCN1C(=O)Cc1ccc(-c2ccccc2)cc1 (configuration not stated),inactive: 11.3%,–
O=C(NC1=NCCS1)c1ccc(Cl)c(S(=O)(=O)N2CCCCCC2)c1,inactive: 18.4%,–
CCCS(=O)(=O)N1CCC(C(=O)NCCC(C)C)CC1,inactive: 1.61%,–
O=C(NCCOc1nc(N2CCCCC2)nc(N2CCCCC2)n1)Nc1ccccc1,inactive: -0.0925%,–
CC(C)(C)c1ccc(C(=O)N2CCC(C(=O)NC3CC3)CC2)cc1,inactive: 8.63%,–
CC(C)C(=O)Nc1cccc(C(=O)Nc2ccc(S(=O)(=O)Nc3nccs3)cc2)c1,inactive: 2.61%,–
CN(CC(=O)Nc1ccccc1C(F)(F)F)C(=O)COc1ncnc2sccc12,inactive: 10.4%,–
CC1=Nc2ccc(C)cc2/C1=C/c1c(N)n2oc(C)cc2nc1=O,inactive: 4.4%,–
COc1cc(N)c(Cl)cc1Cl,inactive: 2.02%,–
CC(C)CCn1c(=S)[nH]c2ncccc2c1=O,inactive: 18.6%,–
CCC1Oc2ccc(C)cc2N(CC(=O)NCCN2CCOCC2)C1=O (configuration not stated),inactive: 1.78%,–
COc1cc(NC(=S)NCc2cccs2)cc(OC)c1,inactive: 21.9%,–
CCOC(=O)c1c(/N=C/N(C)C)sc(C)c1C,inactive: 30.2%,–
COc1ccc(C(=O)CN2C(=O)COc3ccccc32)cc1,inactive: 20.1%,–
CCOC(=O)C1=C(C)NC(=S)NC1c1ccc(C)s1 (configuration not stated),inactive: 16.4%,–
COc1ccc(C(=O)NC(=S)NNC(=O)c2c(-c3ccccc3)noc2C)cc1OC,–,active: 12.6 µM
COCCNC(=O)c1cccc2c(-c3cnn(C)c3)coc12,inactive: 3.21%,–
CC1(C)Cc2c(c(-c3ccccc3)[nH]c(=O)c2C#N)CO1,inactive: 1.69%,–
CCOC(=O)c1ccc(NC(=S)NCCCn2ccnc2)cc1,inactive: 2.83%,–
